Laboratory results reported in ChEMBL document CHEMBL1157539, “Thousands of chemical starting points for antimalarial lead identification” (Nature, 2010).
In all, about 13,000 compounds were measured (“IFI”: median about 4, highest 2% from about 17 on). This is one part of the list.

experiment: GSK_TCMDC: Inhibition Frequency Index (IFI). The number of non-kinase HTS assays where a compound showed > 50 % inhibition, expressed as a percentage of the number of such assays in which the compound was tested (-0 is zero); format: functional

Going from CC(C)C(=O)NC(c1ccc(N(C)C)cc1)c1cc(Cl)c2cccnc2c1O (stereo not given) to O=C(NCCN1CCCCC1)c1ccc(CNC(=O)c2ccc(O)c(-c3ccc(Cl)c(Cl)c3)c2)cc1, the IFI falls from 5.38% to 2.96%.

First: CC1(C)NC(=N)NC(=N)N1OCC=Cc1ccccc1
Second: CN(C)CC(O)C(O)(c1ccccc1)c1ccc(F)cc1 (stereo not given)
The IFI of the first is higher: 3.57% for the first, -0% for the second.

Compared with COc1ccc(-c2nc(NC(=O)CSc3ccccc3)sc2C)cc1, N=C(N)Nc1nc(-c2cccc(NC(=O)NCc3ccc(OC(F)(F)F)cc3)c2)cs1 is higher in IFI: 3.47% for the first, 3.79% for the second.

Compared with O=C(CCCC(=O)Nc1ccc(C2=NCCN2)cc1)Nc1ccc(C2=NCCN2)cc1, COc1ccc(-c2ccc(NC(=O)c3cccc(C#N)c3)cc2)cc1CN1CCN(C)CC1 is higher in IFI: 0% for the first, 4.95% for the second.

First: CCN(CC)CCN(Cc1ccc(-c2ccc(C(F)(F)F)cc2)cc1)C(=O)Cn1c(CCc2ccc(F)c(F)c2F)nc(=O)c2ccc(F)cc21
Second: Cc1[nH]c(C)c(-c2ccc(-c3cc(C(F)(F)F)cc(C(F)(F)F)c3)nc2)c(=O)c1Br
The IFI of the first is higher: 3.01% for the first, 2.68% for the second.

Going from O=S(=O)(NCCN1CCCC1)c1ccc(-c2cccc(CNCc3ccc(F)cc3)c2)s1 to Cc1cnccc1/C=C/c1cccc(OCCN2CCc3ccc(S(C)(=O)=O)cc3CC2)c1, the IFI falls from 9.65% to 0%.

Compared with Cc1cc(N[C@@H](Cc2ccccc2)C(=O)NCc2cccc(F)c2)nc(NCCOc2ccccc2)n1, CC/N=C(/NCCCCCCN/C(=N/CC)NCc1ccccc1)NCc1ccccc1 is lower in IFI: 6.98% for the first, 2.84% for the second.

Compared with CN1CCN(CCCN(C(=O)Nc2cc(C(F)(F)F)cc(C(F)(F)F)c2)c2ccccc2Cc2ccccc2)CC1, CCCCCCN1CCN(Cc2cccc(NC(=O)c3cccc(OCC)c3)c2)CC1 is lower in IFI: 10.8% for the first, 3.52% for the second.

Compared with Cc1cc(OCCCN2CCC(NS(=O)(=O)c3cccc(Br)c3)C2)c2ccccc2n1 (stereo not given), O=C(C=Cc1ccc(Cl)c(Cl)c1)NCCCCCN1CCC(CCCNS(=O)(=O)c2cccc(C(F)(F)F)c2)CC1 is higher in IFI: 1.72% for the first, 14.9% for the second.

Going from CCc1c(C)c2ccc3c(c2oc1=O)CN(CCc1ccc(F)cc1)CO3 to CCCNC(=O)c1ccc(N2CCC(c3ccccc3C)CC2)nc1, the IFI rises from -0% to 2.13%.

Going from c1ccc(-c2ccc(CNCc3ccc(-c4cccc(-c5nc6ccccc6[nH]5)c4)cc3)s2)nc1 to Cc1ccc2cc(NC(=O)c3cccc(C(=O)Nc4ccc5nc(C)ccc5c4)n3)ccc2n1, the IFI falls from 2.86% to 0.72%.

First: CCc1ccc(NC(=O)C=NNC(=N)N)cc1
Second: CCc1cc(NC2CCN(C)CC2)nc(Nc2cccc(OC)c2)n1
The IFI of the first is lower: -0% for the first, 4.48% for the second.

Work on O=C(NC1CCC(N2CCN(c3cccc4[nH]ccc34)CC2)CC1)c1cc2cccnc2[nH]1 (stereo not given) yielded an IFI of 16%.
